Laboratory results reported in PubChem BioAssay AID2546 (National Center for Advancing Translational Sciences (NCATS), 2010).
The whole screen tested about 310,000 compounds, of which about 11,000 (3.5%) were called active. This list was built around the results that the source calls inconclusive (neither active nor inactive); the mix of calls is not that of the screen. Calls follow the shape of the dose curve; as a rule, active = well fitted inhibition curve with a large enough effect; inconclusive = small, poorly fitted or top-dose-only effect, or effect the other way; inactive = flat fitted curve, though single readings scatter. No potency is given beside an inconclusive call; the fits are too rough.
% is scaled to controls: 0 for no effect and ±100 for the full control effect; potency is read from the fitted curve at half-maximal effect; tags tell the direction and shape of the fitted curve.

Assay: VP16 counterscreen qHTS for inhibitors of ROR gamma transcriptional activity;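 also: Gal4-VP16 expression switched on by copper sulfate through the metallothionein promoter; nearly all actives have a fitted effect of over 50% in size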
Conditions: Drosophila S2 Gal4-VP16 UAS-luciferase, luminescence, 20 h; activity, negative = inhibition: at 53.6 µM (top of the series)
For `CCc1c(C(=O)NNC(=S)NCCc2ccccc2)csc1C`, the Potency was inconclusive [inhibitor, single point]. In the case of `C/C(CCC(=O)OC[C@H]1O[C@H](C#Cc2ccccc2)C=C[C@@H]1Oc1ccc(C)cc1)=N\OC[C@@H](O)[C@H]1O[C@@H]2OC(C)(C)O[C@@H]2[C@H]1O`, the Potency is reported as inconclusive [inhibitor, single point]. With `CC(C)Oc1ccc2c(=O)cc(-c3ccccc3)oc2c1` the Potency was inconclusive [inhibitor, single point]. In the case of `CCCn1nc(C(=O)N2CC(=O)Nc3ccccc32)c2ccccc2c1=O`, the “activity, negative = inhibition” value is reported as inactive: -2.43%. With `CCOC(=O)N1CCc2[nH]c3ccc(C)cc3c2C1` the “activity, negative = inhibition” value was inactive: -0.452%. In the case of `COc1ccc(NC(=S)NCCc2c[nH]c3ccc(OC)cc23)c(OC)c1`, the Potency is reported as inconclusive [inhibitor, single point]. In the case of `O=C(O)c1ccc(/C=N/Nc2nnnn2-c2ccccc2)cc1`, the Potency is reported as inconclusive [inhibitor, single point]. With `Cc1cc(C(=O)N/N=C/c2ccc(-c3cccc(Cl)c3Cl)o2)n[nH]1` the Potency was inconclusive [inhibitor, single point]. In the case of `O=C(N/N=C/c1sc(=O)n(-c2ccccc2)c1Cl)c1ccncc1`, the Potency is reported as active: 11.2 µM. In the case of `COc1cc(/C=N/NC(=O)c2c(-c3ccccc3)noc2C)cc(OC)c1OC`, the Potency is reported as inconclusive [inhibitor, single point]. For `c1ccc(-n2ncc3c2ncn2nc(-c4ccco4)nc32)cc1`, the Potency was inconclusive [inhibitor, single point]. For `CN(C(=O)C1CCN(S(=O)(=O)c2cccs2)CC1)C1CCCCC1`, the “activity, negative = inhibition” value was inactive: 6.41%. With `c1ccc(-c2csc(N3CCN(c4ccccn4)CC3)n2)cc1` the Potency was inconclusive [inhibitor, single point]. In the case of `O=C(N/N=C\c1c(O)ccc2ccccc12)c1ccc(Cn2cccn2)o1`, the Potency is reported as active: 12.6 µM. With `Cn1c2ccccc2c2ncn(CCCN3CCOCC3)c(=O)c21` the “activity, negative = inhibition” value was inactive: 10.7%. With `COc1cccc(Cn2c(Oc3ccccc3)nc3c2c(=O)n(C)c(=O)n3C)c1` the Potency was inconclusive [inhibitor, single point]. With `COCCCNC(=S)N/N=C/c1ccccc1O` the Potency was active: 3.55 µM. With `O=C(NCCS(=O)(=O)c1ccc(Br)cc1)c1ccc(Cl)cc1` the “activity, negative = inhibition” value was inactive: -6.17%. With `Cc1cc(OCCn2cnc3ccccc3c2=O)cc(C(C)C)c1` the Potency was inconclusive [inhibitor, single point]. For `CCN(CC)S(=O)(=O)c1ccc(N/N=C(\C)c2ccc3c(c2)OCO3)c([N+](=O)[O-])c1`, the “activity, negative = inhibition” value was inactive: -9.53%. In the case of `COCCC(=O)N1CCC(Oc2ccc(C(=O)N3CCCCCCC3)cc2)CC1`, the “activity, negative = inhibition” value is reported as inactive: 1.91%. With `COc1cc2[nH]c3c(N4CCN(c5ccc(Cl)cc5)CC4)ncnc3c2cc1OC` the Potency was inconclusive [inhibitor, single point]. In the case of `Cc1cccc(/C(N)=N/OC(=O)c2ccc(Cl)cc2Cl)c1`, the Potency is reported as active: 20 µM. For `Cc1ccccc1C(=O)Nc1ccc(O)cc1C(=O)O`, the “activity, negative = inhibition” value was inactive: -1.59%. In the case of `COc1cccc(/C=N/Nc2ncccc2[N+](=O)[O-])c1OC`, the Potency is reported as active: 4.47 µM. With `CCOCc1nnc(NC(=O)c2ccc(OC)cc2)s1` the “activity, negative = inhibition” value was inactive: 0.475%. With `O=C(NC(=S)Nc1ccc(Oc2ccccc2)cc1)c1ccc(Cl)cc1` the Potency was inconclusive [inhibitor, single point]. For `COC(=O)c1ccccc1NC(=S)NC(C)=O`, the “activity, negative = inhibition” value was inactive: 21.8%. With `Cc1cc(NC(=O)COC(=O)[C@H](Cc2c[nH]c3ccccc23)NC(=O)c2ccc(F)cc2)no1` the Potency was inconclusive [inhibitor, single point]. For `COC(=O)C/C=C/[C@@H](C)[C@@H](/C=N/O[C@H](C)c1cn([C@@H]2COC[C@H]2O)nn1)NS(=O)(=O)c1ccc(C)cc1`, the “activity, negative = inhibition” value was inactive: 0.184%. In the case of `Fc1cccc(CN2CCN(c3nc4nonc4nc3NC3CC3)CC2)c1`, the Potency is reported as inconclusive [inhibitor, single point]. For `O=C(NC(=S)N1CCN(c2ccc([N+](=O)[O-])cc2)CC1)c1ccccc1F`, the Potency was active: 1 µM. In the case of `Cc1cc(C)cc(OCC(=O)NNC(=O)CN2C(=O)c3ccccc3C2=O)c1`, the Potency is reported as inconclusive [activator, single point]. For `COC(=O)c1cc(OC)c(OC)cc1NC(=S)Nc1cccc(Cl)c1`, the Potency was active: 6.31 µM. In the case of `CC(C)Cc1nnc(NC(=O)c2cc(-c3ccccc3)nc3ccccc23)s1`, the Potency is reported as inconclusive [inhibitor, partial curve]. For `CC1CC(C)CN(S(=O)(=O)c2ccc(C(=O)Nc3sccc3C(N)=O)cc2)C1` (configuration not stated), the Potency was inconclusive [inhibitor, single point]. For `COC(=O)c1ccc(NC(=S)NC(=O)C2CCC2)cc1`, the Potency was inconclusive [inhibitor, single point]. For `COc1ccccc1NC(=O)c1ccc2c(c1)N(CC(=O)NC(C)(C)C)C(=O)C(C)(C)O2`, the “activity, negative = inhibition” value was inactive: 5.58%. In the case of `Cc1cccc(-n2c(SCC(N)=O)nc3c(c2=O)C2(CCCCC2)Cc2ccccc2-3)c1`, the Potency is reported as inconclusive [inhibitor, single point]. With `COC(=O)c1c(N)sc(C(=O)NCCc2ccccc2)c1C` the Potency was active: 4.47 µM. For `CC(C)C(=O)Nc1nc(-c2ccccc2)ns1`, the Potency was inconclusive [activator, single point]. For `COc1ccc(/C(C)=N/OCC(=O)N=Nc2c(O)[nH]c3ccccc23)cc1`, the Potency was inconclusive [activator, single point]. With `COC(=O)c1cc(NS(=O)(=O)c2ccc(C(C)C)cc2)ccc1N1CCOCC1` the Potency was inconclusive [inhibitor, single point]. In the case of `S=C(NC1CCCC1)NC1CC1`, the Potency is reported as inconclusive [inhibitor, single point]. In the case of `COc1cc(S(=O)(=O)N2CCN(c3ccccc3F)CC2)c(OC)cc1Cl`, the “activity, negative = inhibition” value is reported as inactive: 4.25%. In the case of `O=C(Nc1cccc(C(F)(F)F)c1)c1cc(Br)cc(Br)c1O`, the Potency is reported as active: 4.47 µM. With `Cc1[nH]n(-c2ccccc2)c(=O)c1N=Nc1ccccc1O` the Potency was active: 4.47 µM.
